# Data reported in publication PMC4336329 (PLoS ONE, 2015).
# Among all 310,000 compounds or so, about 14,000 (4.5%) showed an effect of 50% or more. Effects have a minus sign here. The list shows a part of the results.
# Target: human ether-à-go-go-related gene (hERG) potassium channel (human, UniProt Q12809)
# Assay: primary screen, population patch clamp on CHO cells stably expressing hERG
# 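Also: peak tail current of the secondary pulse compared with the same well before compound.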
# human ether-à-go-go-related gene (hERG) potassium channel, sequence (Q12809 whole entry, looked up): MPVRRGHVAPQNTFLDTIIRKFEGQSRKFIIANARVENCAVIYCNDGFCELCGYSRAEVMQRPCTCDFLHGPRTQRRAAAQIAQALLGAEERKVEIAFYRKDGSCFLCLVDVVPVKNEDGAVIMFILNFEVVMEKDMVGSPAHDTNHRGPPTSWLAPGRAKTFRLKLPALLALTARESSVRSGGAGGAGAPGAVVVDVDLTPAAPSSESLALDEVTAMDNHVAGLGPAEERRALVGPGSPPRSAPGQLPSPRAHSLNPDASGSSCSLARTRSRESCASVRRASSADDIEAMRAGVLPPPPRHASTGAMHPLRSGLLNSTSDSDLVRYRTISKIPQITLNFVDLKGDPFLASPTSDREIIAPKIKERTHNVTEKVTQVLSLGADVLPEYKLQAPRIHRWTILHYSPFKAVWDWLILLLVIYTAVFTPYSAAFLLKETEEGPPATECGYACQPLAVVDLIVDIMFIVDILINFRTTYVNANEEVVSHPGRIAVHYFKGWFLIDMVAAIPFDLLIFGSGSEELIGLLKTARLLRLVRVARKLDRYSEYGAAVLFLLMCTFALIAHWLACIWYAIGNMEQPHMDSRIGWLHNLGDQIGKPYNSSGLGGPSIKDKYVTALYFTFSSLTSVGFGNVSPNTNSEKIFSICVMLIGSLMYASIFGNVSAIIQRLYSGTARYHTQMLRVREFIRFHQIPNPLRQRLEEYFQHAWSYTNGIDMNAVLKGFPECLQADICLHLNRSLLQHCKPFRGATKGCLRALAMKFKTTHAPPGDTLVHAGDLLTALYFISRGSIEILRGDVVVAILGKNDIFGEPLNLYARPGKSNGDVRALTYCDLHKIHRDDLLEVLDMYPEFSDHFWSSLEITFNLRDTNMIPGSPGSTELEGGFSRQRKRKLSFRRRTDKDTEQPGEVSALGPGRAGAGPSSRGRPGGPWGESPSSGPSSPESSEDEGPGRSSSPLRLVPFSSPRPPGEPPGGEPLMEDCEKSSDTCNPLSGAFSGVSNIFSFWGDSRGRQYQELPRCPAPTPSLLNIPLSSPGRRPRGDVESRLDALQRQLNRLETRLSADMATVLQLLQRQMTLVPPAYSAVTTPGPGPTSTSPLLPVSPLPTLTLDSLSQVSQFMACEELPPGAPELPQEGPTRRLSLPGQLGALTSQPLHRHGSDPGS
row,Compound,"hERG current change (%, negative = inhibition) at 10uM [%]"
1,O=c1c2ccccc2nc(SCc2nc3ccccc3s2)n1Cc1ccco1,18
2,Cc1cc(C)cc(NC(=O)C2CCN(S(=O)(=O)c3ccc4[nH]c(=O)ccc4c3)CC2)c1,-8.87
3,Cc1ccn2cc(CNS(=O)(=O)c3ccc4ccccc4c3)nc2c1,1.8
4,CCc1nc(C)cn1S(=O)(=O)c1cc(Cl)c(OC)cc1Cl,-0.954
5,CCCC1(c2ccccc2)NC(=O)N(CC(=O)Nc2cc(OC)cc(OC)c2)C1=O (stereo not shown),8.48
6,Cc1ccccc1CCNCc1ccc(Br)cc1,-53.6
7,CC(/C=N/n1cnnc1)=C\c1ccccc1,-5.4
8,CCN(C(=O)COC(=O)c1cc(C)oc1C)c1c(N)n(Cc2ccccc2)c(=O)[nH]c1=O,9.02
9,CCOC(=O)C1CCN(C(=O)Cn2cnc3sc(C)c(S(=O)(=O)N4CCC(C)CC4)c3c2=O)CC1,-67.9
10,CCC1CCCCN1C(=O)c1cc2c(=O)n3cccc(C)c3nc2s1 (stereo not shown),4.01
11,COCCn1c(SCC(=O)Nc2nnc(C)s2)nnc1-c1c[nH]c2ccccc12,-10.6
12,CS(=O)(=O)N1CCC(C(=O)N2CCN(C(c3ccccc3)c3ccccc3)CC2)CC1,-0.257
13,Cc1ccc(-c2cc(N)n(-c3ccccc3)n2)cc1,9.36
14,COc1ccc(CNCCc2ccc3c(c2)OCO3)cc1Br.O=C(O)C(=O)O,-50.5
15,CCc1ccc(CNC(=O)C2CCN(S(=O)(=O)N3CCC4(CC3)OCCO4)CC2)cc1,-4.12
16,CC(=O)NNS(=O)(=O)c1ccc(-c2cc(C(F)(F)F)n(C)n2)s1,-0.0144
17,O=C(Nc1ccc(F)cc1)Nc1nnc(-c2ccccc2)o1,-0.0939
18,O=C(COc1ccc2c3c(c(=O)oc2c1)CCC3)N1CCCCC1,3.84
19,CSc1ccccc1C(=O)NC1CCCCCC1,6.76
20,Cc1ccc(NC(=O)CN(C)C(=O)c2ccc(C(F)(F)F)cc2)cc1,7.17
21,CCOC(=O)c1ccccc1NC(=O)Cc1c(C(=O)O)n(C)c2ccccc12,5.03
22,CC1c2cc3c(cc2CCN1C(=O)c1ccc(Br)cc1)OCCCO3 (stereo not shown),-41
23,Cc1cc2oc3ccc(NCCCn4ccnc4)cc3c(=O)c2cc1C,6.32
24,Nc1nonc1-c1nc2ccccc2n1Cc1ccc(F)cc1Cl,4.91
25,Cn1c(-c2ccc(C(=O)c3ccccc3)s2)nc2ccccc21,11.5
26,Clc1ccccc1Nc1nc2ccccc2o1,10.5
27,Cn1ccc(C(=O)Oc2ccc(C(=O)Nc3ccc(F)cc3F)cc2)n1,12.5
28,CCOC(=O)c1ccc(NS(=O)(=O)N2CCCCCC2)cc1,-10

row,Compound,"hERG current change (%, negative = inhibition) at 10uM [%]"
1,O=C(CN1C(=O)C2CCCCC2C1=O)Nc1nc(-c2ccccn2)cs1 (stereo not shown),-0.211
2,CC1CCN(C(=O)COC(=O)c2cc([N+](=O)[O-])ccc2N2CCOCC2)CC1,-15
3,CCOC(=O)c1c(NC(=O)C2=C(C)NC(=S)NC2c2ccc(F)cc2F)sc(C)c1C (stereo not shown),-5.84
4,O=C(Cc1cccs1)Nc1ccc([N+](=O)[O-])cc1,4.02
5,Cc1cccc(C)c1NC(=O)CN(C)C(=O)COc1cccc2c1OC(C)(C)C2,11.5
6,CC(=O)N1CCCc2cc(S(=O)(=O)N3CCCC(C(=O)Nc4ccccc4C)C3)ccc21 (stereo not shown),10.9
7,Cc1ccc(C(=O)CC2(O)C(=O)N(CN3CCOCC3)c3ccccc32)cc1 (stereo not shown),-2.38
8,O=c1oc2ccccc2c2c1ncn2CCN1CCOCC1,-8.76
9,CCOC(=O)c1ccc(S(=O)(=O)n2c(CN3CCCCC3)nc3ccccc32)cc1,12.9
10,CSc1ccc(-c2sc(Nc3ccccc3)n[n+]2-c2ccc(F)cc2)cc1.[Cl-],1.55
11,COc1ccc(NC(=S)Nc2ccc3cn[nH]c3c2)cc1,-11.9
12,CC1(C(=O)O)CCC(C(=O)Nc2ccc(Cl)c(Cl)c2)C1(C)C (stereo not shown),13
13,C=CCc1cc(Cl)ccc1OCCCNC(C)CC.O=C(O)C(=O)O (stereo not shown),-55.7
14,Cc1c(C(=O)N2CCC(C)CC2)sc2ncn(CC(=O)N3CCC(C)CC3)c(=O)c12,0.105
15,Cc1cc([N+](=O)[O-])c(Cl)cc1NC(=O)C(C)C,2.72
16,CC1Cc2ccccc2N1C(=O)CSc1nncn1C (stereo not shown),12.8
17,O=C(Nc1cccc(F)c1)c1cc(-c2ccco2)nc2ccccc12,9.26
18,COc1ccccc1N(CC(=O)NCC1CCCO1)C(=O)CCC(=O)Nc1nccs1 (stereo not shown),4.95
19,CCCC(C(=O)NC1CCCC1)N(C(=O)Cn1nnc(-c2ccc(C)o2)n1)c1ccccc1OC (stereo not shown),-19.6
20,COc1ccc(C(OCC(O)CNCCc2ccc(S(N)(=O)=O)cc2)c2ccc(OC)cc2)cc1 (stereo not shown),-43.2
21,Cc1cc(C)cc(N2CC(C)(C)C2=O)c1,3.97
22,O=C(Cc1cccc(NC(=O)C2CCN(C(=O)C3CCC3)CC2)c1)Nc1cccc(C(=O)N2CCCC2)c1,1.66
23,CN(C)N1C(N)=C(C#N)C(c2ccccc2)C2=C1CC(C)(C)CC2=O (stereo not shown),2.33
24,O=c1c2cc(N3CCOCC3)ccc2[nH]c(=S)n1Cc1ccc(Cl)cc1,-6.97
25,COC(=O)C1=C(N)Oc2cc(C)n(CCCn3ccnc3)c(=O)c2C1c1cccc(Cl)c1 (stereo not shown),-69.7
26,Cc1cnc(NC(=O)CSc2nnc(COc3ccccc3)o2)s1,2.23
27,Cc1nn(C)c(C)c1NC(=O)CSc1nc(Cc2ccccc2)nc2c1cnn2-c1ccccc1,13.2
